Test results from the supplement of paper PMC11417369.
± gives the standard deviation of the averaged measurements. Some of the results follow.

Each sequence was assayed on PfAP2-G AP2 domain (GST-tagged) (assay: gcPBM binding intensity (ln(normalized median fluorescence intensity)); higher = stronger DNA binding).
Procedure, shortened: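 Probes on an Agilent 4 × 180k array were primer-extended, double-stranded and 36 bp long, taken from intergenic genomic regions, with negative controls added. GST-tagged P. falciparum DNA-binding domains from E. coli, about 25 μg on average, were applied to the array for 1 h in 1× PBS containing 1% milk, 0.2 mg/ml BSA, 0.5% salmon testes DNA and 0.03% Triton X-100. Binding intensity, obtained after Alexa488 anti-GST antibody detection and a 488 nm scan, is the highest Masliner-normalised natural-log median intensity across replicate spots of either probe orientation.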

Sequence | gcPBM binding intensity (ln)
ATACAAATTTATATTTCACACATTATTATATACTTA [CACACA_site6034] | 9.79 ± 0.26
TCTGAAAATTAGAAAAGTACAAAATGGTATAGGAAA [XGTACX_site4396] | 11.2 ± 0.64
ATATATATATATAAATGTACAGGCTTATCTCTTATT [XGTACX_site1828] | 10.9 ± 0.8
TGTATTATATATGTGTGTACATATTTTTTTTTTTTT [XGTACX_site3351] | 11.5 ± 1.1
CGCACACGCAGACACACACACACATATAAATAAATA [CACACA_site7101] | 10.2 ± 0.34
AAAAAAAAGAAAAAAAAAAAAAAAAAAAAAAAAAAA [CACACA_negctrl_site489] | 9.69 ± 0.42
AATACATGCTAAAAACGTACACGTATAAAATTATAT [XGTACX_site3169] | 11.4 ± 0.88
AAATTATTTCTTTGCGCATGTAGCTTTTATACTATT [TGCATGCA_site819] | 9.98 ± 0.16
ACATAAATAATAAAAACACACATATGTACCTATATA [CACACA_site6982] | 11.2 ± 0.72
AATTTAATATAATGCACACATAAAAAAAAAATCAAA [CACACA_site1] | 10.1 ± 0.18
TTTTTTTTTTTGGCTAGTACATATGTATTTAAAATG [XGTACX_site7770] | 10.9 ± 0.64
GGTGAAATTATTTCTACATGCAGAAATAATTAATTA [TGCATGCA_site194] | 9.84 ± 0.14
TGTTGTTCCAATTTTTGTACATAAAACATATATATA [XGTACX_site5719] | 11.1 ± 0.54
AAGAAAATATAAAATGCACACTATAAATTGTATATA [CACACA_site7928] | 9.76 ± 0.3
AAAAAAAAAAAAAATTGTACATTAAATTAAAAGAAA [XGTACX_site8708] | 10.9 ± 0.71
AAAAAAAAAAATACTTGTACTTATATAATATATTAT [XGTACX_site8333] | 11.1 ± 0.75
GTAATATTTTATAGTAGTACATATTTTTATTATTTT [XGTACX_site3333] | 11.4 ± 0.89
GAGAGGTCAGTTCACAGTACCCAGAAACTCTACGAG [XGTACX_site2559] | 11.2 ± 0.91
GAGAAAAGGAAATAACGTACACATATGCATATCCAA [XGTACX_site5858] | 11.3 ± 0.77
TATTTATTGTGACACTTTTATTATTTTATGATAAAA [CACACA_negctrl_site37] | 10.4 ± 0.46
GTGTTCTTGTTATACACACACATATATATATATATA [CACACA_site1032] | 10.4 ± 0.23
TGAAAGAAGCATAAATGTACACACATATTTATATAT [XGTACX_site2645] | 11.1 ± 0.5

Sequence | gcPBM binding intensity (ln)
AATATTTATTTAATTTCACACAGGTCTTTTTTTTTT [CACACA_site5188] | 9.925 ± 0.035
TTGTTCTTATTTCATTTTTATATGATATTTCATTAT [CACACA_negctrl_site1619] | 10.1 ± 0.11
TGAAGAATATTTTTCACACATATATATATATATATA [CACACA_site6080] | 10 ± 0.54
TGAATATATAAATATGCACACTTCTATTATAAATAA [CACACA_site5796] | 9.94 ± 0.028
TAACATATAAGTGTGTGTACGTACTGCGTATAATAT [XGTACX_site8597] | 11.5 ± 0.81
GACAAACAATATGAATGTACATAAAAATATAACTAA [XGTACX_site1167] | 11.1 ± 0.38
ATATATATATATATATGTACATATTTTTGTTTGATG [XGTACX_site51] | 11.2 ± 0.83
CAGATATTCATATAAACACACATACAAATTATGTAT [CACACA_site4258] | 9.865 ± 0.035
TATATATATAATTAAGCATGCTAGAAACCTTTGAAA [TGCATGCA_site489] | 9.93 ± 0.18
TACAATCTAAAATACACACGCACACCGAAAAAAAAA [CACACA_site3520] | 10.4 ± 0.4
ATATATATATATATTGCACACACAATTATTATTATT [CACACA_site8721] | 10.1 ± 0.35
ATATAATATTTATATGTACACACCTTAATCCTTAAA [CACACA_site3555] | 11.3 ± 0.81
ATAAACGTTTTTGAAAGTACATATCATTCATTTGAT [XGTACX_site200] | 11 ± 0.64
TTTTAACATATAAGTACACACATATAATCAATCATA [CACACA_site2325] | 11.5 ± 0.99
ATGTAGAAGTAATGCACACATATGTATTTATATATA [CACACA_site5391] | 10.1 ± 0.057
CCTTATAAATACTGCACACATAAAATATATATTATC [CACACA_site2806] | 10.2 ± 0.18
TTTTATCGTTTTTTTTTTTTTTTTTTTTTTTTTTTT [CACACA_negctrl_site1309] | 10.9 ± 0.49
TTTGTTCATATGAAATGTACAAAAAAAAAAAAAAAA [XGTACX_site8849] | 10.8 ± 0.77
TATATATATAAAAAAGCACACATACATACATACATA [CACACA_site8196] | 10.1 ± 0.12
AAAAAAATTAATATGTCAGCACATATATACATACAT [GTGCAC_negctrl_site110] | 10
TGTTAATTAAAACATCATTAATATTATTAAAAATAC [XGTACX_negctrl_site509] | 9.77 ± 0.057
TCTTTTTTTACTTTCTTTTTTTTTTTTTTTTTTTTT [XGTACX_negctrl_site610] | 10.7 ± 0.61
